{
  "source": "PubChem BioAssay AID504333",
  "about": "(National Center for Advancing Translational Sciences (NCATS), 2011)",
  "note": "Values joined by “and” are separate entries in the source; they are usually repeats but may differ in a detail not shown here. Equal entries are not always repeated. Among all 360,000 compounds or so, about 16,000 (4.4%) were called active. Inconclusive results, whose numbers are uncertain, are shown with a selection of clear calls. The call rests on the fitted dose curve; in most records, active means well fitted inhibition curve with a large enough effect; inconclusive means small, poorly fitted or top-dose-only effect; inactive means no such curve, though single readings can be large or run the other way. A potency beside an inconclusive call is a rough fit, not a confirmed value. On the % scale 0 is the no-effect control and ±100 the full control effect; potency means the concentration at half of the fitted maximal effect; tags describe the fitted curve by direction and shape.",
  "data": [
    {"molecular_target": "Bromodomain adjacent to zinc finger domain protein 2B (Homo sapiens) (UniProt Q9UIF8)", "sequence (Q9UIF8 whole entry, looked up, the tested form may be a part)": "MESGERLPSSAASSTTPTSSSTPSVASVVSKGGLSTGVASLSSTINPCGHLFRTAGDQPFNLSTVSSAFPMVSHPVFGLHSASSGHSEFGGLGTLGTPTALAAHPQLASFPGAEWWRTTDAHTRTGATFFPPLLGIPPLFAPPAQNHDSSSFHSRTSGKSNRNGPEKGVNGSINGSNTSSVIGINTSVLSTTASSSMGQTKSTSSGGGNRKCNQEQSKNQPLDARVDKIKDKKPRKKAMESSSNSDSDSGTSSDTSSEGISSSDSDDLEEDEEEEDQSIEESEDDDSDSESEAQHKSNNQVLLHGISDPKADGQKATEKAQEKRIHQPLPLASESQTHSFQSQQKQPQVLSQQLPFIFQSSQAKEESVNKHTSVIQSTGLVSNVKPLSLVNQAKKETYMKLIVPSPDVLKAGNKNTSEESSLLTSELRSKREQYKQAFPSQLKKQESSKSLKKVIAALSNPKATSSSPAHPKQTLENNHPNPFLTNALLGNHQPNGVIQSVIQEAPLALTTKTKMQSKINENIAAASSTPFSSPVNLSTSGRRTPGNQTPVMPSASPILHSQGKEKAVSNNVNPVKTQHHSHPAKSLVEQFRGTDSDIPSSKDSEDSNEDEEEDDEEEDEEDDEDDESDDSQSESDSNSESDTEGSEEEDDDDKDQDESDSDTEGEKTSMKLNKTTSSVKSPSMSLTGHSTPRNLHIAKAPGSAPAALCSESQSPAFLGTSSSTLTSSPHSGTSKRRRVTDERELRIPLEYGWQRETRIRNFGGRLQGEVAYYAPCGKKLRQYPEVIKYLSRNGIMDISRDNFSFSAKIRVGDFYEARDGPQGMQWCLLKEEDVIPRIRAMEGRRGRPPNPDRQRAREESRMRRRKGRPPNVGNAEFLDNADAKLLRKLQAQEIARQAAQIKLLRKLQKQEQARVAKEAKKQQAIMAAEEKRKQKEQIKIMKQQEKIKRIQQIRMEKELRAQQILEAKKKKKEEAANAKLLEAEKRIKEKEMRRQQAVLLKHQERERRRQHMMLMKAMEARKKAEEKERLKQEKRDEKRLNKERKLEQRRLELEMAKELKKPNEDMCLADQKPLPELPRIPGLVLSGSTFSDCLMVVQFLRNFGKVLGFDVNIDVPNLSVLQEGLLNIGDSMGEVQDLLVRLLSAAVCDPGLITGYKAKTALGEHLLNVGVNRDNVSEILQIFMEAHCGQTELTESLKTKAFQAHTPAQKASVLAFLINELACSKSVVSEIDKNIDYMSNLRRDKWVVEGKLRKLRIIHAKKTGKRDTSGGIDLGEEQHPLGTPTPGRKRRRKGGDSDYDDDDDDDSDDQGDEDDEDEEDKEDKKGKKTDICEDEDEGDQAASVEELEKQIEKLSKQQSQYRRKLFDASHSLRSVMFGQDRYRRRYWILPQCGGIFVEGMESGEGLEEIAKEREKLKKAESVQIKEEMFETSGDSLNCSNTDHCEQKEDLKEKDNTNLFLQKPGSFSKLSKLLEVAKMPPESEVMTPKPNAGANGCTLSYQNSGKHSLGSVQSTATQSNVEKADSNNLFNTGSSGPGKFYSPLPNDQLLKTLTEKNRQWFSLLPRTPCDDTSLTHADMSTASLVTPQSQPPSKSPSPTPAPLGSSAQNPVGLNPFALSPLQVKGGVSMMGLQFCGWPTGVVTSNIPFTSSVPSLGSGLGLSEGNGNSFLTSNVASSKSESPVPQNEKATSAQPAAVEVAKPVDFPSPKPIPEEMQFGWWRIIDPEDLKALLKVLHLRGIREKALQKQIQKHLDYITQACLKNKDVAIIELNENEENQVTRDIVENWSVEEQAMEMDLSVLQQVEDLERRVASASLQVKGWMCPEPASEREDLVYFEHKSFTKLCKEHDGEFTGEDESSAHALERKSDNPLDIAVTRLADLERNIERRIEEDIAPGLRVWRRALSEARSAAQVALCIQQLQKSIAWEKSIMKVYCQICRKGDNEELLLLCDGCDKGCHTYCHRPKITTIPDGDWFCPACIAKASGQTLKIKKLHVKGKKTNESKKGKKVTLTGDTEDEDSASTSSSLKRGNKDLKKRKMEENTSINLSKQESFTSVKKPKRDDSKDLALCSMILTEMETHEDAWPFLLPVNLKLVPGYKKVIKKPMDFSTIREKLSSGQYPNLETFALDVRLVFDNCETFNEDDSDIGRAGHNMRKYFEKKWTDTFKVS", "experiment": "qHTS Assay for Inhibitors of BAZ2B; further: nearly all actives have a fitted effect of over 60% in size", "conditions": "AlphaScreen BAZ2B-H3K14Ac peptide displacement; activity change, negative = inhibition: at 114 µM (top of the series)", "how_it_was_run": "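AlphaScreen displacement of biotin-H3(5-23)K14Ac peptide (50 nM final) from BAZ2B (50 nM final) in PBS pH 7.4, 0.01% Tween-20; complex preformed 30 min RT, then compounds (top 110 uM) 30 min RT, beads 20 min dark.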", "values": [
      {"smiles": "COc1cccc(N2CCN(CC(=O)Nc3nnc(-c4ccccc4)s3)CC2)c1", "Potency": "inconclusive: 39.8 µM [inhibitor, full curve]"},
      {"smiles": "O=C(C1CCCO1)N1CCN(C(=S)Nc2ccc(Br)cc2)CC1", "note": "(configuration not stated)", "activity change, negative = inhibition": "inactive: 0.805%"},
      {"smiles": "COc1ccc(-c2nc(SCC(=O)NCc3ccco3)c(-c3ccccc3)[nH]2)cc1OC", "Potency": "inconclusive: 50.1 µM [inhibitor, partial curve]"},
      {"smiles": "COc1ccccc1N1CCN(Cc2cc(COC(C)C)c3cccnc3c2O)CC1", "Potency": "active: 3.98 µM"},
      {"smiles": "CC1(NC(=O)/C=C/c2nc3ccccc3s2)CCS(=O)(=O)C1", "note": "(configuration not stated)", "Potency": "inconclusive: 100 µM [inhibitor, single point]"},
      {"smiles": "O=C(OCc1cc(=O)n2c(n1)sc1ccccc12)c1ccc(O)cc1", "Potency": "inconclusive: 89.1 µM [inhibitor, single point]"},
      {"smiles": "CCC(C)n1c(=N)c(C(=O)NC2CCCCC2)cc2c(=O)n3cc(C)ccc3nc21", "note": "(configuration not stated)", "activity change, negative = inhibition": "inactive: 3.21%"},
      {"smiles": "Cc1ccc(C(=O)c2cc(C)sc2NC(=O)CN2CCN(C(=O)c3ccco3)CC2)cc1", "Potency": "inconclusive: 35.5 µM [inhibitor, full curve]"},
      {"smiles": "COc1ccc(C(=O)N2N=C(c3cccs3)CC2c2ccccc2O)cc1", "note": "(configuration not stated)", "Potency": "inconclusive: 70.8 µM [inhibitor, single point]"},
      {"smiles": "CC[C@H](C)NC(=O)CCCc1nnc2n(CCC(C)C)c(=O)c3sccc3n12", "Potency": "inconclusive: 89.1 µM [inhibitor, single point]"},
      {"smiles": "O=C(CCSc1nnc(-c2ccncc2)o1)Nc1ccccc1Cl", "Potency": "inconclusive: 89.1 µM [inhibitor, single point]"},
      {"smiles": "Cc1ccnc(NC(c2cc(C)ccc2O)c2ccc3cccnc3c2O)c1", "note": "(configuration not stated)", "Potency": "active: 22.4 µM"},
      {"smiles": "Cc1c(Cl)cccc1-c1ccc(CNCc2ccccn2)o1", "Potency": "active: 25.1 µM"},
      {"smiles": "O=C(O)c1cc(O)c2c(c1)[C@@H]([C@H]1c3cc(C(=O)O)cc(O)c3C(=O)c3c(O[C@@H]4O[C@H](CO)[C@@H](O)[C@H](O)[C@H]4O)cccc31)c1cccc(OC3O[C@H](CO)[C@@H](O)[C@H](O)[C@H]3O)c1C2=O", "note": "(some centres not stated)", "Potency": "active: 0.794 µM"},
      {"smiles": "COc1cc(/C=N/Nc2nc(Nc3ccccc3)nc(N3CCOCC3)n2)ccc1OC(=O)c1ccco1", "Potency": "inconclusive: 31.6 µM [inhibitor, partial curve]"},
      {"smiles": "COC(=O)CN1C(=O)N/C(=C/c2ccc(C)o2)C1=O", "activity change, negative = inhibition": "inactive: 2.34%"},
      {"smiles": "Cc1cc(=S)[nH]c2c(C)cccc12", "Potency": "inconclusive: 89.1 µM [inhibitor, single point]"},
      {"smiles": "CC(C)C[C@H](NC(=O)C1(c2ccccc2)CCN(C(=O)OC(C)(C)C)CC1)C(=O)N1CCC[C@H]1C(=O)O", "activity change, negative = inhibition": "inactive: -12.4%"},
      {"smiles": "O=S(=O)(Nc1ccc(S(=O)(=O)Nc2nccs2)cc1)c1ccc(Br)cc1", "Potency": "inconclusive: 79.4 µM [inhibitor, single point]"},
      {"smiles": "CCN1C/C(=C/c2cccc([N+](=O)[O-])c2)C(=O)/C(=C/c2cccc([N+](=O)[O-])c2)C1", "Potency": "inconclusive: 50.1 µM [inhibitor, single point]"},
      {"smiles": "CCOC(=O)CNc1c(-c2ccc(O)cc2)nc2ccccn12", "Potency": "inconclusive: 79.4 µM [inhibitor, single point]"},
      {"smiles": "CN(C)CCN(C(=O)c1ccc(N2C(=O)CCC2=O)cc1)c1nc2cc3c(cc2s1)OCCO3", "Potency": "inconclusive: 79.4 µM [inhibitor, partial curve]"},
      {"smiles": "Cc1ccc(Nc2c(-c3cccc(Cl)c3)nc3cccc(C)n23)cc1", "Potency": "inconclusive: 7.94 µM [inhibitor, full curve]"},
      {"smiles": "CN(C)c1ccc(NC(=O)c2ccc(N3CCOCC3)nc2)cc1", "Potency": "inconclusive: 44.7 µM [inhibitor, partial curve]"},
      {"smiles": "COc1cc(/C=C(\\C#N)c2nc3c(s2)CCCC3)ccc1O", "Potency": "active: 56.2 µM"},
      {"smiles": "CC(C)c1ccc(-c2noc(SCC(=O)N3CCCCC3)n2)cc1", "activity change, negative = inhibition": "inactive: 55.9%"},
      {"smiles": "CCOc1ccc(/C=C2\\SC(=S)N(CCC(=O)Nc3ccc(C(=O)O)cc3)C2=O)cc1", "Potency": "active: 22.4 µM"},
      {"smiles": "CN1C(=O)/C(=C/c2ccc(O)c([N+](=O)[O-])c2)NC1=S", "Potency": "inconclusive: 39.8 µM [inhibitor, partial curve]"},
      {"smiles": "CC(=O)Nc1nonc1-c1nnc(SCc2cccc(Br)c2)n1C", "Potency": "inconclusive: 89.1 µM [inhibitor, single point]"},
      {"smiles": "CC1(C)OC(=O)C(=CNCC(=O)NCC(=O)O)C(=O)O1", "Potency": "inconclusive: 89.1 µM [inhibitor, single point]"},
      {"smiles": "O=C(N/N=C/c1cc([N+](=O)[O-])ccc1O)C(O)(c1ccccc1)c1ccccc1", "Potency": "inconclusive: 79.4 µM [inhibitor, single point]"},
      {"smiles": "COc1ccc(-c2[nH]c(-c3ccc(C(=O)O)cc3)nc2-c2ccccc2)cc1", "Potency": "active: 79.4 µM"},
      {"smiles": "CC1CC(=O)N(CC(=O)NCc2ccccc2)c2ccccc2S1(=O)=O", "note": "(configuration not stated)", "activity change, negative = inhibition": "inactive: -8.37%"},
      {"smiles": "COc1cc(C2C(C(=O)c3cccs3)=C(O)C(=O)N2Cc2ccco2)cc(OC)c1OC", "note": "(configuration not stated)", "Potency": "inconclusive: 79.4 µM [inhibitor, single point]"},
      {"smiles": "O=C(NCc1ccc2c(c1)OCO2)c1cccc([N+](=O)[O-])c1", "activity change, negative = inhibition": "inactive: 8.53%"},
      {"smiles": "COc1cc2c(cc1OC)CN(c1nc(CN3CCCC3)nc3sc(C)c(C)c13)CC2", "Potency": "active: 79.4 µM"},
      {"smiles": "COc1ccccc1C(=O)NNC(=O)c1ccc(NC(=O)c2ccccc2)cc1", "Potency": "inconclusive: 79.4 µM [inhibitor, single point]"},
      {"smiles": "CC1(C)CC(=O)C(N=Nc2cc(C(F)(F)F)ccc2Cl)=C(O)C1", "Potency": "inconclusive: 28.2 µM [inhibitor, full curve, poor fit]"},
      {"smiles": "Cc1ccc(-c2nc(S(=O)(=O)c3ccc(C)cc3)c(N3CCOCC3)o2)cc1", "Potency": "inconclusive: 79.4 µM [inhibitor, single point]"},
      {"smiles": "Cc1cc(NC(=O)c2ccc([N+](=O)[O-])o2)ccc1NC(=O)c1ccco1", "Potency": "inconclusive: 89.1 µM [inhibitor, single point]"},
      {"smiles": "Cn1c(-c2ccccc2)c(C(=O)CCl)c2ccccc21", "activity change, negative = inhibition": "inactive: 16.8%"},
      {"smiles": "CCOC(=O)C1CCN(Cc2cccc(Oc3ccccc3)c2)CC1", "Potency": "active: 56.2 µM"},
      {"smiles": "Nc1nc(-c2cccc(Br)c2)cs1", "Potency": "inconclusive: 79.4 µM [inhibitor, single point]"},
      {"smiles": "CCN(CC)S(=O)(=O)c1cccc(N=Nc2c(O)c3ccccc3oc2=O)c1", "Potency": "inconclusive: 79.4 µM [inhibitor, single point]"},
      {"smiles": "CC(C)(C)NC(=O)CCN(/N=C/c1ccncc1)C1=NS(=O)(=O)c2ccccc21", "activity change, negative = inhibition": "inactive: 19%"},
      {"smiles": "O=C(COc1ccccc1)NCC(c1ccco1)N1CCN(c2ccccc2)CC1", "note": "(configuration not stated)", "activity change, negative = inhibition": "inactive: -37.2%"},
      {"smiles": "Cc1sc2ncn(CC(=O)NCc3ccco3)c(=O)c2c1-c1ccccc1", "Potency": "inconclusive: 70.8 µM [inhibitor, single point]"},
      {"smiles": "COc1ccc(/C=C(\\C#N)C(=O)c2c(C)[nH]c3ccccc23)cc1OC", "Potency": "inconclusive: 25.1 µM [inhibitor, full curve]"},
      {"smiles": "COc1cc(/C=C2\\C(=O)NN(c3ccccc3)C2=O)cc([N+](=O)[O-])c1O", "Potency": "active: 56.2 µM"},
      {"smiles": "COc1ccc(NC(=O)CCCN2C(=O)CN(C)C2=O)c(OC)c1", "Potency": "active: 50.1 µM"},
      {"smiles": "O=C(/C=C/c1ccc(OC(F)F)cc1)OCC(=O)N1CCN(C(=O)c2ccco2)CC1", "Potency": "inconclusive: 50.1 µM [inhibitor, partial curve]"},
      {"smiles": "Cc1cc2oc(C(=O)N(Cc3ccc(N(C)C)cc3)CC3CCCO3)c(C)c2cc1C", "note": "(configuration not stated)", "Potency": "active: 10 µM and active: 14.1 µM"},
      {"smiles": "CCC1=Nc2cc(C(=O)NCCCOC(C)C)ccc2Sc2ccc(C)cc21", "Potency": "inconclusive: 79.4 µM [inhibitor, single point]"},
      {"smiles": "CN1C2C=C(N(CCc3c[nH]c4ccccc34)C(=O)c3ccc(Cl)cc3)CC1CC2", "note": "(configuration not stated)", "Potency": "inconclusive: 89.1 µM [inhibitor, single point]"},
      {"smiles": "O=C(NCCN1CCOCC1)C1CCC(CNS(=O)(=O)c2ccc(Cl)cc2)CC1", "note": "(configuration not stated)", "Potency": "inconclusive: 89.1 µM [inhibitor, single point]"},
      {"smiles": "Cc1sc(NC(=O)c2ccco2)c(CN2CCN(c3ccccn3)CC2)c1C", "Potency": "inconclusive: 70.8 µM [inhibitor, single point]"},
      {"smiles": "N#Cc1ccc(N2CCc3ccccc3C2)c([N+](=O)[O-])c1", "Potency": "inconclusive: 12.6 µM [inhibitor, full curve]"},
      {"smiles": "COC(=O)[C@@H]1C[C@@]2(O)[C@H](O)[C@H](O)[C@H](O)C[C@H]2N1CC1CC1", "Potency": "inconclusive: 89.1 µM [inhibitor, single point]"},
      {"smiles": "CCOC(=O)C1(C)C=C(Nc2ccc(O)cc2)C(=O)N1c1ccc(O)cc1", "note": "(configuration not stated)", "Potency": "active: 50.1 µM"},
      {"smiles": "CC1(C)CC(=O)C(C2(O)C(=O)Nc3ccccc32)CO1", "note": "(configuration not stated)", "Potency": "inconclusive: 89.1 µM [inhibitor, single point]"},
      {"smiles": "O=C1CC(c2ccco2)CC(O)=C1C=Nc1ccc(Br)cc1", "note": "(configuration not stated)", "activity change, negative = inhibition": "inactive: -37.5%"},
      {"smiles": "COC(=O)Cn1c(-c2ccc(OC)cc2)c(-c2ccc(OC)cc2)nnc1=O", "Potency": "active: 56.2 µM"},
      {"smiles": "CCOc1cc(C=O)ccc1OCC(=O)N1CCCC1", "activity change, negative = inhibition": "inactive: 12%"},
      {"smiles": "CCC(C)N1CCC2(CC1)N=c1c(c3c4c5c(C)c(O)c3c(O)c1=NC(=O)C(C)=CC=C[C@H](C)[C@H](O)[C@@H](C)[C@@H](O)[C@@H](C)[C@H](OC(C)=O)[C@H](C)[C@@H](OC)C=CO[C@@](C)(O5)C4=O)N2", "note": "(some centres not stated)", "Potency": "active: 50.1 µM"},
      {"smiles": "CCOC(=O)C1(Cc2ccccc2C)CCCN(C(=O)c2ccc(CSC)o2)C1", "note": "(configuration not stated)", "Potency": "inconclusive: 70.8 µM [inhibitor, partial curve]"},
      {"smiles": "CCOC(=O)C1=C(N)n2c(s/c(=C\\c3ccco3)c2=O)=C(C(=O)OCC)C1c1ccco1", "note": "(configuration not stated)", "Potency": "active: 7.94 µM"},
      {"smiles": "COc1ccc(CCNC(=O)CC(Cc2ccc(C)cc2)C(=O)O)cc1OC", "note": "(configuration not stated)", "activity change, negative = inhibition": "inactive: 0.0865%"}
    ]}
  ]
}
